# Experimental data as given in the supplement of paper PMC11060735.
# Structures can show the parent of a compound that is named as a salt. Hit rate of the full screen: of about 1,800 compounds, about 50 (3%) showed activity. This is one part of the list.
# Test system: mouse p16Ink4a+/- lung fibroblasts (INKBRITE, bleomycin-injured)
# Test: percentage of GFP+ (p16Ink4a+) fibroblasts among all cells in well; higher = less depletion of p16Ink4a+ cells, active = 20 or less
# Conditions: 1 µM; 3 days
# 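Further: fibroblasts sorted 14 days after bleomycin, GFP+ and GFP− mixed 1:1 in 384-well plates (GFP− as in-well control), imaged after Hoechst and NucView530 staining, reference wells lacked compound.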
row,SMILES,percentage of GFP+
1,C[C@H](NC(=O)[C@@H](O)c1cc(F)cc(F)c1)C(=O)N[C@@H]1C(=O)N(C)c2ccccc2-c2ccccc21,inactive: 54%
2,CCCCNc1cc(C(=O)O)cc(S(N)(=O)=O)c1Oc1ccccc1 [Bumetanide],inactive: 33%
3,O=C(NCc1ccc(Oc2ccccc2)cc1)c1nc(-c2cc(Br)c(O)c(Br)c2)no1,inactive: 49.1%
4,C[C@H]1COc2c(N3CCN(C)CC3)c(F)cc3c(=O)c(C(=O)O)cn1c23 [Levofloxacin],inactive: 52.8%
5,NC(=O)c1noc([C@H](CCCC2CCCCC2)CC(=O)NO)n1,inactive: 47%
6,Cc1cccc(CN2CCN(C(c3ccccc3)c3ccc(Cl)cc3)CC2)c1 (stereo not given) [Meclizine],inactive: 49.2%
7,CC(C)c1nc(CN(C)C(=O)N[C@@H](CCN2CCOCC2)C(=O)N[C@H](CC[C@H](Cc2ccccc2)NC(=O)OCc2cncs2)Cc2ccccc2)cs1 [Cobicistat],inactive: 43.4%
8,CCN(CC)C(=S)SSC(=S)N(CC)CC [Disulfiram],inactive: 39%
9,CN(C)C(=O)[C@H](O)[C@H](Cc1ccccc1)NC(=O)c1cc2cc(Cl)ccc2[nH]1,inactive: 54.4%
10,CCCCOc1ccc(C(=O)CCN2CCCCC2)cc1 [Dyclonine],inactive: 47.1%
11,"CCCN1CCCC[C@H]1C(=O)Nc1c(C)cccc1C [Ropivacaine, Ropivacaine Hydrochloride]",inactive: 46%
12,O=C(Nc1ccccc1Br)N[C@@H]1CCN(c2ccc(C(F)(F)F)cn2)C1,inactive: 39.1%
13,CCOC(=O)N1CCC(=C2c3ccc(Cl)cc3CCc3cccnc32)CC1 [Loratadine],inactive: 54.5%
14,COc1nc(N)nc2c1ncn2[C@@H]1O[C@H](CO)[C@@H](O)[C@@H]1O [Nelarabine],inactive: 36.4%
15,CCOc1nc2cccc(C(=O)O)c2n1Cc1ccc(-c2ccccc2-c2nn[nH]n2)cc1 [Candesartan],inactive: 42.4%
16,O=C(c1cccc(Cl)c1F)N1CCN(Cc2cccc(Nc3nccs3)n2)CC1,inactive: 31.9%
17,N#CC(=C(/N)Sc1ccccc1N)/C(C#N)=C(\N)Sc1ccccc1N,inactive: 45.5%
18,Cn1nc(C(C)(C)C)cc1C(=O)N[C@@H](Cc1cccc(Cl)c1)C(=O)NCC#N [Cathepsin Inhibitor 1],inactive: 52.1%

row,SMILES,percentage of GFP+
1,CC(C)(CO)c1cc2cc(NC(=O)C3(c4ccc5c(c4)OC(F)(F)O5)CC3)c(F)cc2n1C[C@@H](O)CO,inactive: 33%
2,COC1=CC(=O)C[C@@H](C)[C@]12Oc1c(Cl)c(OC)cc(OC)c1C2=O [Griseofulvin],inactive: 40.1%
3,Cc1cn(C2C=CC(CO)O2)c(=O)[nH]c1=O (stereo not given) [Stavudine],inactive: 37.8%
4,CN1C2CCCC1CC(NC(=O)c1nn(C)c3ccccc13)C2 (stereo not given) [Granisetron Hydrochloride],inactive: 39.2%
5,Cc1cccc(C)c1OCC(=O)N[C@@H](Cc1ccccc1)[C@@H](O)C[C@H](Cc1ccccc1)NC(=O)[C@H](C(C)C)N1CCCNC1=O [Lopinavir],inactive: 30.6%
6,CC1=C(/C=C/C(C)=C/C=C/C(C)=C/C=C/C=C(C)/C=C/C=C(C)/C=C/C2=C(C)CCCC2(C)C)C(C)(C)CCC1 [Beta-carotene],inactive: 49.2%
7,CCS(=O)(=O)CCn1c([N+](=O)[O-])cnc1C [Tinidazole],inactive: 45.9%
8,CC[C@@H]1C(=O)OC[C@@H]1Cc1cncn1C [Pilocarpine],inactive: 46.3%
9,CC(C)NCC(O)c1ccc(O)c(O)c1 (stereo not given) [Isoprenaline],inactive: 40.9%
10,CC[C@H]1OC(=O)C[C@@H](O)[C@H](C)[C@@H](O[C@@H]2O[C@H](C)[C@@H](O[C@H]3C[C@@](C)(O)[C@@H](O)[C@H](C)O3)[C@H](N(C)C)[C@H]2O)[C@@H](CC=O)C[C@@H](C)C(=O)/C=C/C(C)=C/[C@@H]1CO[C@@H]1O[C@H](C)[C@@H](O)[C@@H](OC)[C@H]1OC [Tylosin Tartrate],inactive: 52.1%
11,OCC(O)CN1CCN(c2ccccc2)CC1 (stereo not given) [Dropropizine],inactive: 51.5%
12,CNC(=O)CN1CCC(Oc2cc3c(Nc4cccc(Cl)c4F)ncnc3cc2OC)CC1 [Sapitinib],inactive: 47.4%
13,CC1(C)CC(=O)c2c(C(F)(F)F)nn(-c3ccc(C(N)=O)c(N[C@H]4CC[C@H](O)CC4)c3)c2C1,active: 6.92%
14,"CC[C@H](CO)Nc1nc(NCc2ccccc2)c2ncn(C(C)C)c2n1 [Roscovitine, Seliciclib]",inactive: 42%
15,CCCS(=O)(=O)Nc1ccc(F)c(C(=O)c2c[nH]c3ncc(-c4ccc(Cl)cc4)cc23)c1F [Vemurafenib],inactive: 42.6%
16,Clc1ccc(C(Cn2ccnc2)OCc2c(Cl)cccc2Cl)c(Cl)c1 (stereo not given) [Isoconazole],inactive: 32.3%
17,Clc1ccccc1CN1CCc2sccc2C1 [Ticlopidine],inactive: 43.4%
